{
  "source": "paper PMC4336329",
  "about": "(PLoS ONE, 2015)",
  "note": "Hit rate of the full screen: of about 310,000 compounds, about 2,200 (0.71%) showed an effect of 50% or more. Effects have a minus sign here. The list shows a part of the results.",
  "data": [
    {"target": "human ether-à-go-go-related gene (hERG) potassium channel (human, UniProt Q12809)", "sequence (Q12809 whole entry, looked up)": "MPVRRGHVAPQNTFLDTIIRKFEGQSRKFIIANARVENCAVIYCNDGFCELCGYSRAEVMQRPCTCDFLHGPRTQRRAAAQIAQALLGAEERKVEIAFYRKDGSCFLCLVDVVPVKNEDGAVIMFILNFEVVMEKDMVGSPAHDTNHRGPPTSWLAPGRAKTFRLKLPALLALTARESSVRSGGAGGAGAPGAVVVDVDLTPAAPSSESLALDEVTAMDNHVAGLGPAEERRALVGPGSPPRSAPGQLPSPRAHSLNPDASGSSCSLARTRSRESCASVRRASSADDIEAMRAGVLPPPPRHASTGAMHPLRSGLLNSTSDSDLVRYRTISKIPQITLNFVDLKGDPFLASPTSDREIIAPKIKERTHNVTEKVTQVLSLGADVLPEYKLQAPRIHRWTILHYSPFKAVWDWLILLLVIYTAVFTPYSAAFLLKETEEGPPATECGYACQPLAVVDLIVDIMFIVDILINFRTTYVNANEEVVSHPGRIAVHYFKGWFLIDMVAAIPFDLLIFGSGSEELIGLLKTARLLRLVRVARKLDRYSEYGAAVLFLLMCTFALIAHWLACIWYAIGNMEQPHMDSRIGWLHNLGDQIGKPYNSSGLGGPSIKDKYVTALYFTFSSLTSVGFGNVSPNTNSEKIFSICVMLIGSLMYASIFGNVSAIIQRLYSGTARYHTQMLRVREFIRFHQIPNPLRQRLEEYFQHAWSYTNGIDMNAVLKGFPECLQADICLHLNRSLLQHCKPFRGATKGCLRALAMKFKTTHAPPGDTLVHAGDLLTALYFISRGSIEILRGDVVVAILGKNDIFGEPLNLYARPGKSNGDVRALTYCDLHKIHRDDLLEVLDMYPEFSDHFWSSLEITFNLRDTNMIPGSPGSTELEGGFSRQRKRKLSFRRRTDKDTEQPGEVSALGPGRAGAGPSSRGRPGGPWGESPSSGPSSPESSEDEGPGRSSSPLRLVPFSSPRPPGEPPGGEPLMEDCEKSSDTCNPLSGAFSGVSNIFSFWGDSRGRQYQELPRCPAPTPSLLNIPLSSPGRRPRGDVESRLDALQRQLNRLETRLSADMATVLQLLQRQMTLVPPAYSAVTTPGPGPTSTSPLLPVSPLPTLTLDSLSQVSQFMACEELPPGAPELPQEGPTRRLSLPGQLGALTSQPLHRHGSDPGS", "assay": "primary screen, population patch clamp on CHO cells stably expressing hERG", "units": {"hERG current change (%, negative = inhibition) at 1uM": "%"}, "values": [
      {"smiles": "COc1cccc(-c2n[nH]c(=S)n2Cc2ccco2)c1", "hERG current change (%, negative = inhibition) at 1uM": 12.1},
      {"smiles": "COc1ccc(CN2CC(C(=O)NCCCOC(C)C)CC2=O)cc1", "note": "(centres unmarked)", "hERG current change (%, negative = inhibition) at 1uM": 9.25},
      {"smiles": "CCOC(=O)C1(CCc2ccccc2)CCN(Cc2ccc(O)cc2)CC1", "hERG current change (%, negative = inhibition) at 1uM": -86.3},
      {"smiles": "Cn1nc(C(=O)Nc2ccc(S(=O)(=O)N3CCCC3)cc2)ccc1=O", "hERG current change (%, negative = inhibition) at 1uM": 3.55},
      {"smiles": "CC(OC(=O)CCC(=O)c1cccs1)C(=O)Nc1ccccc1[N+](=O)[O-]", "note": "(centres unmarked)", "hERG current change (%, negative = inhibition) at 1uM": 15.8},
      {"smiles": "CC(C)NC(=O)c1cc2c(s1)CCCC2", "hERG current change (%, negative = inhibition) at 1uM": 4.21},
      {"smiles": "CCN(CC)C(=O)Nc1ccc(C(=O)OC)cc1", "hERG current change (%, negative = inhibition) at 1uM": 5.01},
      {"smiles": "Cc1ccccc1NC(=O)c1cccc(N2C(=O)C3CCC(C)CC3C2=O)c1", "note": "(centres unmarked)", "hERG current change (%, negative = inhibition) at 1uM": 22.2},
      {"smiles": "COc1ccc(OC)c(CCNC(=O)Cn2nc(C)c3c(C)n(-c4ccc(C)cc4)nc3c2=O)c1", "hERG current change (%, negative = inhibition) at 1uM": 9.8},
      {"smiles": "COc1ccc(Br)cc1CN1CCN(C(=O)c2ccco2)CC1.O=C(O)C(=O)O", "hERG current change (%, negative = inhibition) at 1uM": 0.835},
      {"smiles": "O=C(NCc1cccnc1)c1ccc(NC(=O)c2cccc([N+](=O)[O-])c2)cc1", "hERG current change (%, negative = inhibition) at 1uM": 0.436},
      {"smiles": "O=C(NCc1ccco1)C1CCCN(S(=O)(=O)c2cc(Cl)ccc2Cl)C1", "note": "(centres unmarked)", "hERG current change (%, negative = inhibition) at 1uM": 2.52},
      {"smiles": "C/C(=N\\NC(=O)C(O)(c1ccccc1)c1ccccc1)c1ccc(NC(=O)CCCC(=O)O)cc1", "hERG current change (%, negative = inhibition) at 1uM": 11.3},
      {"smiles": "CCCCN(C(=O)CCC(=O)Nc1cc(C)on1)C(C(=O)NC(C)(C)C)c1cccc(OC)c1OC", "note": "(centres unmarked)", "hERG current change (%, negative = inhibition) at 1uM": 17.3},
      {"smiles": "Cc1cc(C)n2nc(Sc3ncccc3[N+](=O)[O-])nc2n1", "hERG current change (%, negative = inhibition) at 1uM": 16.2},
      {"smiles": "COc1ccc(OC)c2sc(N(CCN(C)C)C(=O)/C=C/c3cccs3)nc12.Cl", "hERG current change (%, negative = inhibition) at 1uM": -35.1},
      {"smiles": "COc1cc2c(cc1OC)CN(CC(=O)Nc1ccc(C)c(C)c1)CC2", "hERG current change (%, negative = inhibition) at 1uM": 6.48},
      {"smiles": "COc1cccc(C(=O)Nc2cc(C(=O)NCCc3ccccc3)ccc2Cl)c1", "hERG current change (%, negative = inhibition) at 1uM": 10.9},
      {"smiles": "O=C(COC(=O)c1nc(Cl)ccc1Cl)Nc1ccc2[nH]c(=O)[nH]c2c1", "hERG current change (%, negative = inhibition) at 1uM": -2.16},
      {"smiles": "c1cncc(-c2nnc3n2CCC3)c1", "hERG current change (%, negative = inhibition) at 1uM": 9.61},
      {"smiles": "COc1ccc(NC(=O)C2(c3cccs3)CCOCC2)cc1", "hERG current change (%, negative = inhibition) at 1uM": 6.2},
      {"smiles": "COc1ccc(S(=O)(=O)NC(CC(=O)NCCc2ccccc2)c2ccco2)cc1", "note": "(centres unmarked)", "hERG current change (%, negative = inhibition) at 1uM": 15.3},
      {"smiles": "CNC(=S)Nc1ccc(C)cc1", "hERG current change (%, negative = inhibition) at 1uM": 12.7},
      {"smiles": "CCOc1ccc(/C(C)=N/N2C(=O)C(CC(=O)Nc3ccc(OC)cc3[N+](=O)[O-])SC2=Nc2cccc(C)c2C)cc1", "note": "(centres unmarked)", "hERG current change (%, negative = inhibition) at 1uM": 5.11},
      {"smiles": "COc1ccccc1NC(=S)NC1CCCCCC1", "hERG current change (%, negative = inhibition) at 1uM": 7.94},
      {"smiles": "CCNC(=S)Nc1ccc(OC(F)(F)F)cc1", "hERG current change (%, negative = inhibition) at 1uM": 3.99},
      {"smiles": "COc1ccc(-c2nnc(SCC(=O)NCc3ccco3)o2)cc1", "hERG current change (%, negative = inhibition) at 1uM": 9.15},
      {"smiles": "CC1CCCN(C(=O)CN(C)S(=O)(=O)c2cccc3nsnc23)C1", "note": "(centres unmarked)", "hERG current change (%, negative = inhibition) at 1uM": 10.1},
      {"smiles": "Cc1nc2ncnn2c(C)c1CCC(=O)N1CCN(Cc2ccccc2)CC1", "hERG current change (%, negative = inhibition) at 1uM": 0.596},
      {"smiles": "Cc1cccc(Nc2nc(N)c([N+](=O)[O-])c(N3CC(C)CC(C)C3)n2)c1", "note": "(centres unmarked)", "hERG current change (%, negative = inhibition) at 1uM": 16.2},
      {"smiles": "Cc1ccc(-c2nnc(SCC(=O)N/N=C/c3c(C)nn(-c4ccccc4)c3C)n2-c2ccc(C)cc2)cc1", "hERG current change (%, negative = inhibition) at 1uM": 6.43},
      {"smiles": "O=C(CSc1nccn(-c2ccc(F)c(Cl)c2)c1=O)NC1CCCC1", "hERG current change (%, negative = inhibition) at 1uM": 13.1},
      {"smiles": "CC(C(=O)NCCc1ccc(Cl)cc1)n1c(=O)c2cccn2c2cccnc21", "note": "(centres unmarked)", "hERG current change (%, negative = inhibition) at 1uM": 2.33},
      {"smiles": "O=C(CCCOc1ccccc1)NC(=S)Nc1ccccc1", "hERG current change (%, negative = inhibition) at 1uM": 8.02},
      {"smiles": "Nc1ccc(SCC(=O)Nc2cccc([N+](=O)[O-])c2)cc1", "hERG current change (%, negative = inhibition) at 1uM": 6.76},
      {"smiles": "O=C(NCc1ccco1)c1ccc(S(=O)(=O)N2CCCCCC2)cc1", "hERG current change (%, negative = inhibition) at 1uM": 4.29},
      {"smiles": "COc1cc(NC(=O)Cn2ccsc2=N)cc(OC)c1.Cl", "hERG current change (%, negative = inhibition) at 1uM": 11.4},
      {"smiles": "CCOC(=O)c1nnn(-c2nonc2N)c1CN1CCCCCC1", "hERG current change (%, negative = inhibition) at 1uM": 2.5},
      {"smiles": "Cc1cc(Cl)c(S(N)(=O)=O)cc1OCC(N)=O", "hERG current change (%, negative = inhibition) at 1uM": 9.34},
      {"smiles": "Oc1ccc(C2=Nn3c(nnc3-c3ccco3)SC2)cc1O", "hERG current change (%, negative = inhibition) at 1uM": 1.36},
      {"smiles": "Cc1ccc(S(=O)(=O)Nc2ccc(N(C)C)cc2)cc1", "hERG current change (%, negative = inhibition) at 1uM": 12.3},
      {"smiles": "COc1ccc(NS(=O)(=O)/C=C/c2ccccc2)cc1", "hERG current change (%, negative = inhibition) at 1uM": 15.3},
      {"smiles": "COc1cc(F)c(C2=CC(=O)CC(C)(C)C2)cc1F", "hERG current change (%, negative = inhibition) at 1uM": 5.92},
      {"smiles": "CC(=O)Nc1ccc(S(=O)(=O)N(Cc2ccccc2)c2ccccc2F)cc1", "hERG current change (%, negative = inhibition) at 1uM": 8.33}
    ]}
  ]
}
